Results on 82 molecules are retold here after ChEMBL document CHEMBL4888484, “Replenishing the malaria drug discovery pipeline: Screening and hit evaluation of the MMV Hit Generation Library 1 (HGL1) against asexual blood stage Plasmodium falciparum ,using a nano luciferase reporter read-out” (2022).

Among all 150,000 compounds or so, about 540 (0.36%) showed an effect of 50% or more. This is one part of the list.

The assay deals with Plasmodium falciparum. Briefly: Primary screen in NF54 nanoGlo assay, in single point, at 2uM, 72h; a lower Z score goes with more inhibition. It is filed as functional, Erythrocyte. Conditions: timepoint 72 hour.
Take `Cc1c(Cl)cncc1NC(=O)N1CC(=O)NC(=O)C12CCCCC2`: the “% Inhibition” value is listed as -4% and the Z score worked out at 0.59.
Take `O=C(c1conc1C1CC1)N1CCN(CC=Cc2ccccc2)CC1`: the “% Inhibition” value is 6% and the Z score is listed as -0.79.
In the case of `Cc1cccc(C2CC(N[C@@H](C)C(=O)NCc3ccco3)C2)c1` (some centres undefined), the “% Inhibition” value is on record as 34% and the Z score is -2.88.
As for `N#Cc1nccnc1O[C@H]1CCN(C(=O)c2cc(C3CC3)on2)C1`, the “% Inhibition” value is given as -1% and the Z score was 0.06.
As for `Cc1ccc(C(=O)Nc2nc(-c3ccc(C)s3)ns2)cc1`, the “% Inhibition” value was -9% and the Z score was found to be 1.4.
In the case of `C[C@H]1CN(C(=O)c2ccccc2OC2CC2)CCN1C(=O)c1cscn1`, the “% Inhibition” value was 3% and the Z score was -0.4.
In the case of `CC(C#N)NC(=O)C(c1ccccc1)C1CC1` (centres undefined), the “% Inhibition” value is -12% and the Z score is recorded as 1.91.
`O=C(C1CCCC1)N1CCN(Cc2ccncc2)[C@@H]2CS(=O)(=O)C[C@@H]21`: the “% Inhibition” value was found to be 4% and the Z score is reported as -0.59.
On to `CN(C)C(=O)c1nc2ccc(Cl)cn2c1CN1CCOCC1`, for which the “% Inhibition” value is 1% and the Z score is on record as -0.07.
For `CC(C)(C)c1ccc(C(=O)C(=O)N2CCC[C@H]2c2ccc[nH]2)cc1`, in that order: -12% and 1.71.
`Cc1coc(-c2cc(NC(=O)c3cccc(N(C)C)c3)ccc2C)n1`: the “% Inhibition” value is on record as 6% and the Z score is reported as -0.61.
As for `Cc1ccc(C(=O)NS(=O)(=O)c2cnc3n2CCC3)nc1C`, the “% Inhibition” value turned out to be 1% and the Z score is given as -0.17.
The like results for `CN(Cc1ccccc1)C1(CNC2CCOCC2)Cc2ccccc2C1` were, in that order, -6% and 0.75.
With `CCCCN(CC)c1ncc(C(=O)Nc2ccc(OCC)cc2)c(N)n1`, the “% Inhibition” value is 40% and the Z score was -4.49.
As to `Cc1cc(-c2c(C)sc(C)c2S(=O)(=O)Nc2cccc3ccccc23)on1`, the “% Inhibition” value was 4% and the Z score was -0.7.
As to `COC(=O)[C@H](CN)Cc1cc(F)c(F)c(F)c1`, the “% Inhibition” value amounted to 12% and the Z score is -1.36.
In the case of `CCOc1ccc2c(n1)CCN(C(=O)c1ccc(OC)c(OC)c1)C2`, the “% Inhibition” value is on record as -9% and the Z score is recorded as 1.65.
`CCCN(CCC)C(=O)CCC(=O)Nc1cccnc1C#N`: the “% Inhibition” value is on record as -2% and the Z score was determined as 0.39.
As to `COc1ccc(CC(=O)N2[C@@H]3CC[C@H]2CC(NC(=O)c2cnc(C)cn2)C3)cc1Cl` (some centres undefined), the “% Inhibition” value was -10% and the Z score is on record as 1.96.
With `C=CCNCc1cc(Br)ccc1F`, the “% Inhibition” value is -9% and the Z score is 1.17.
`O=C(N1CCCC1)N1CCN(c2ccccc2)CC1`: the “% Inhibition” value is reported as -3% and the Z score was determined as 0.63.
For `C=CCN(CC(=O)N(Cc1ccc(F)cc1)Cc1ccc(C)o1)C(=O)C1CCCC1`, in that order: -7% and 1.08.
On to `CCN1C(=O)C2(CCN(C(=O)COc3cccc(C)c3)CC2)C[C@H]1C(=O)NCCCOC`, for which the “% Inhibition” value was 3% and the Z score is on record as -0.55.
Regarding `CC(C)=CCNc1ccccc1C(=O)NCCC(N)=O`, the “% Inhibition” value is -6% and the Z score amounted to 1.
As for `O=S(=O)(c1ccccc1)N1C[C@H](NCCc2cccc(F)c2)[C@@H](O)C1`, the “% Inhibition” value was -5% and the Z score is 0.8.
For `COc1ccc(Cn2c(C)c(CNC3CCCCCCC3)c(C(=O)O)c2C)cc1`, in that order: -12% and 1.42.
Take `CN1CCN(Cc2cccc(OCCCCN3CCOCC3)c2)CC1(C)C`: the “% Inhibition” value is 0% and the Z score is reported as -0.02.
For the molecule `CC(C)(C(=O)Nc1ccc2c(c1)OCO2)N(Cc1ccc(F)cc1)C(=O)Cn1nnc2ccccc21`, the “% Inhibition” value was found to be 10% and the Z score is reported as -1.2.
With `CCCc1nnc(N2CCC3(CCCC3)C2)s1`, the “% Inhibition” value is -2% and the Z score turned out to be 0.32.
Consider `CC[C@@]1(O)COC2(CN(C(=O)CCc3conc3-c3ccccc3)C2)C1`, for which the “% Inhibition” value is reported as -9% and the Z score is recorded as 1.4.
The like results for `COc1ccccc1NC(=O)Nc1cc(C)cc2c(-c3ccccc3)c(C(=O)N3CCOCC3)[nH]c12` were, in that order, 29% and -3.27.
As for `Cc1cccnc1C(=O)N1CC2(C[C@@H](c3nc(-c4ccncc4)no3)N(C)C2)C1`, the “% Inhibition” value is -11% and the Z score turned out to be 1.32.
Consider `Cc1c(N2CCC(C(=O)N3CCC(N4CCCCC4)CC3)CC2)c(=O)n(C)c(=O)n1-c1ccccc1`, for which the “% Inhibition” value was found to be 5% and the Z score is -0.9.
Turning to `Cc1c(C(=O)N2C[C@H]3C[C@H](c4ccccc4)CC[C@@]3(C(=O)O)C2)ccn1C`, the “% Inhibition” value was -2% and the Z score was 0.27.
With `CN(Cc1n[nH]c2c1CCC2)Cc1cccc2nonc12`, the “% Inhibition” value is -2% and the Z score turned out to be 0.16.
For `NCCCC(=O)N1CCOc2c(O)cc(-c3nc4ccccc4s3)cc2C1`, in that order: -4% and 0.75.
As for `CN(Cc1nccn1C)C(=O)c1cccc(-c2cc(N3CCCC3)cnn2)c1`, the “% Inhibition” value is listed as -9% and the Z score was determined as 1.41.
For `CCCN1CCn2nc(-c3nc4cc(OC)ccc4[nH]3)cc2C1`, in that order: -3% and 0.27.
As for `COC1CCCN(C(=O)C2CC(Cc3cccc(Cl)c3)=NO2)C1` (centres undefined), the “% Inhibition” value came to 7% and the Z score was -0.89.
The like results for `Cc1c(C(C)C)c(=O)n(-c2ccc(S(=O)(=O)N3CCCCC3)cc2)n1C` were, in that order, -5% and 0.62.
For `O=C(CN1c2ccccc2N(CC(=O)N2CCCCCCC2)S1(=O)=O)N1CCCCCCC1`, in that order: -11% and 0.96.
With `O=C(O)C1CCN(c2cc(-n3ccnc3)ncn2)CC1`, the “% Inhibition” value is recorded as -1% and the Z score was determined as 0.26.
In the case of `CCc1cc(N2C[C@@H]3NC(=O)CN(C)Cc4ccc(OC)c(c4)Oc4cccc(c4)CO[C@H]3C2)nc(N(C)C)n1`, the “% Inhibition” value was found to be 46% and the Z score was -10.96.
Consider `O=C(c1cccc(-c2noc(C3CCC3)n2)c1)N1CCN(c2ccccc2)CC1`, for which the “% Inhibition” value is given as -3% and the Z score was determined as 0.4.
For the molecule `O=C(Cn1cnc2ccccc21)N1CCC(Oc2ccncc2Cl)CC1`, the “% Inhibition” value is reported as -3% and the Z score came out at 0.65.
For `Cc1cc(O[C@H]2CCCN(C(=O)CN3CCOC3=O)C2)nc(C)n1`, in that order: 8% and -1.16.
Take `Cc1cc(C(=O)N(C)C[C@H]2CCCOC2)nn1-c1ccc(Cl)cc1Cl`: the “% Inhibition” value is -4% and the Z score is given as 0.46.
Regarding `CC[C@@H](C(=O)N1CCN(c2ccc(NC(=O)c3ccccc3F)cc2C(=O)NCc2ccc(F)cc2)CC1)c1ccccc1`, the “% Inhibition” value is -26% and the Z score worked out at 2.25.
As to `CN(CCc1noc(C2CCCCC2)n1)S(=O)(=O)c1ccc(Cl)s1`, the “% Inhibition” value is -6% and the Z score was 0.61.
For the molecule `O=C(Cc1cccn1-c1ccc(Cl)cc1)NCCCN1CCCC1`, the “% Inhibition” value is -8% and the Z score worked out at 1.5.
On to `CN(C(=O)c1ccoc1)c1ncccc1F`, for which the “% Inhibition” value is listed as -3% and the Z score was found to be 0.39.
As to `CC1CC(NC(=O)CCc2cnccn2)C(=O)N1c1ccccc1` (centres undefined), the “% Inhibition” value came to 4% and the Z score is reported as -0.76.
On to `O=C(c1cncc(N2CC[C@H](CO)[C@@H](O)C2)n1)N1CCCCC1`, for which the “% Inhibition” value is -15% and the Z score was found to be 1.9.
Turning to `CC1c2ccccc2OC1C(=O)NCC1CN(C(=O)c2ccccc2)C2CCN1C2` (centres undefined), the “% Inhibition” value is recorded as -10% and the Z score is recorded as 1.18.
As for `Cc1ccc(S(=O)(=O)N2CCC(CNC(=O)C3CCOCC3)CC2)s1`, the “% Inhibition” value is -2% and the Z score came out at 0.31.
On to `Cc1noc(C2CCN(C(C)c3cccc(C#N)c3)C2)n1` (centres undefined), for which the “% Inhibition” value is given as -5% and the Z score is recorded as 0.93.
Take `COc1ccc(-n2cc(-c3ccccc3)nc2NC(=O)CN(CC2CC2)C(=O)C(C)C)cc1OC`: the “% Inhibition” value is on record as -3% and the Z score was 0.49.
In the case of `Cc1c(C(=O)N2CC3(CCOC3)C2)oc2ccccc12`, the “% Inhibition” value is 4% and the Z score is reported as -0.59.
For `Cc1cc(C(=O)COc2cccc(S(C)(=O)=O)c2)c(C)n1[C@H]1CCS(=O)(=O)C1`, in that order: 27% and -3.61.
Turning to `O=C1OCCN1CC(=O)N1CCC[C@H]1c1nc2ccccc2s1`, the “% Inhibition” value is listed as -1% and the Z score is 0.07.
For `CCc1ccccc1CNC(=O)c1ccc(C(F)(F)F)c(=O)[nH]1`, in that order: 8% and -1.19.
For `O=C(c1ccco1)N1CCN(c2nccn3nc(-c4ccc(Cl)cc4)cc23)CC1`, in that order: -5% and 0.69.
The like results for `COc1ccc(S(=O)(=O)N2CCN(c3nc4ccccc4nc3C(F)(F)F)CC2)cc1` were, in that order, -12% and 2.33.
Turning to `Cc1ccc(C)c(C(=O)Nc2nc3cc4c(cc3s2)OCCO4)c1`, the “% Inhibition” value is reported as -11% and the Z score was found to be 2.04.
`Cc1csc([C@H](C)NC(=O)c2ncn[nH]2)n1`: the “% Inhibition” value was -3% and the Z score is reported as 0.46.
In the case of `CC1CC(C(N)=O)c2ccccc2N1Cc1nc(Cc2ccccc2)no1` (centres undefined), the “% Inhibition” value was -5% and the Z score turned out to be 0.65.
Take `CN(C)C(=O)c1cc(F)ccc1NCc1cn2ccccc2c1C#N`: the “% Inhibition” value was -13% and the Z score came out at 1.73.
On to `Fc1cccc(F)c1-c1ncnn1C1CCCCC1`, for which the “% Inhibition” value is given as -6% and the Z score is given as 1.
The like results for `Cc1ccc(CCCNC(=O)CCc2ccco2)c(C)c1` were, in that order, 20% and -2.54.
Take `COc1cc(OC)c(N2C[C@@H](C(=O)Nc3ccc(N4CCCC4=O)c(C)c3)CC2=O)cc1Cl`: the “% Inhibition” value is 8% and the Z score is given as -0.71.
For `OCCCN(Cc1cccnc1)Cc1cc2c(cc1Br)OCCO2`, in that order: -9% and 1.28.
In the case of `CC(C)(C)n1cc(C(=O)OCCNc2cccnn2)cn1`, the “% Inhibition” value is -3% and the Z score turned out to be 0.51.
Turning to `O=C(COCc1nnc(C(=O)Nc2cccc(F)c2)s1)NC1CCN(Cc2ccccc2)CC1`, the “% Inhibition” value was -15% and the Z score is on record as 2.46.
`CCn1c(CO)nnc1[C@H]1C[C@@H](NC(=O)[C@H](O)C2CCCCC2)C1`: the “% Inhibition” value is given as -3% and the Z score was 0.41.
For the molecule `CCCn1cc(-c2ccncc2)cc1C(=O)NC1CCCC1`, the “% Inhibition” value is on record as -6% and the Z score stood at 0.64.
In the case of `O=C(c1ccc2ncsc2c1)N1CC(Cn2nc(C3CC3)ccc2=O)C1`, the “% Inhibition” value is on record as -16% and the Z score worked out at 3.12.
As to `CC(=O)N1CCC[C@H](C(=O)N2CCC3(CC2)C(=O)N(C)c2ccccc23)C1`, the “% Inhibition” value is given as -5% and the Z score was determined as 1.
On to `COc1ccc(-n2cc(-c3ccc4c(c3)OCO4)n(CC(=O)Nc3cccc(C)c3)c2=O)cc1`, for which the “% Inhibition” value is given as 11% and the Z score is -2.01.
In the case of `Cc1cnn(CCNC(=O)CC[C@H](C)N2CCN(C)CC2)c1`, the “% Inhibition” value is given as 6% and the Z score is -1.04.
For `O=C(Cc1ccc(F)cc1)NCC1(CO)CC1`, the “% Inhibition” value is on record as 7% and the Z score is -1.1.
`Cc1nc(NC(=O)C(C)N2CCCCC2Cn2cncn2)sc1C` (centres undefined): the “% Inhibition” value was 6% and the Z score is on record as -0.82.
With `CCc1ccc2nc(C)cc(C(=O)N3CCc4nc(C)[nH]c(=O)c4CC3)c2c1`, the “% Inhibition” value is reported as -10% and the Z score is reported as 1.83.
